The record followed here is the supplement of paper PMC4967469.

Lines with a small IC50 respond at low doses; where the fit passes the top or lowest dose, that dose stands as a limit. AUC, from the same fit, is the share of area under the viability curve across the 256-fold dose range; values near 1 show little effect. For part of these data: An inferred top dose was derived from the fitted curves, not read from the paper. Where only a bound is given, the exact number is not on record here.

What all share (test): Viability of human cancer cell lines after 72 h of drug (GDSC screen)
Compound in one test: C=CCNC1=C2C[C@@H](C)C[C@H](OC)[C@H](O)[C@@H](C)/C=C(\C)[C@H](OC(N)=O)[C@@H](OC)/C=C\C=C(/C)C(=O)NC(=CC1=O)C2=O [17-AAG]
As to conditions: top dose 1 µM. The protocol: (§1)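 Human cancer cell lines in 384-well plates, medium with 10% serum, drug for 72 h over a 256-fold dose range (nine 2-fold or five 4-fold steps up to the top dose). Adherent lines were fixed and stained with the nucleic acid dye Syto60, suspension lines read with resazurin; signal relative to control wells, capped at 0 and 100%. One two-parameter sigmoid per drug and line, fitted in a mixed model over all curves with the slope shared within a line.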

Compound in another test: CCc1cc(-c2n[nH]c(C)c2-c2ccc3c(c2)OCCO3)c(O)cc1O [CCT018159]
Conditions: top dose 10 µM; top dose inferred. The protocol: as §1

Compound in another test: CN(C)Cc1cccc(N=C(c2ccccc2)c2c(O)[nH]c3cc(C(=O)N(C)C)ccc23)c1 [BIX02189]
Conditions: top dose 20 µM; top dose inferred. How it is done: as §1

Compound in the next test: COC(=O)CNC(=O)C(=O)OC [Dimethyloxalylglycine]
As to conditions: top dose 4000 µM; top dose inferred. How it is done:
as §1

Compound in the next test: COc1cccc2cc(-c3nc([C@H]4CC[C@H](C(=O)O)CC4)n4ncnc(N)c34)[nH]c12 [OSI-027]
As to conditions: top dose 20 µM. How it is done: as §1

Compound in another test: Cc1cnc(Nc2ccc(OCCN3CCCC3)cc2)nc1Nc1cccc(S(=O)(=O)NC(C)(C)C)c1 [TG101348]
As to conditions: top dose 10.24 µM. The protocol:
as §1

Compound in a further test: O=C(c1ccc(C(=O)N2CCC(N3CCCC3)CC2)c(Nc2ccccc2)c1)N1CCC(N2CCCC2)CC1 [UNC1215]
As to conditions: top dose 1 µM; top dose inferred. How it is done:
as §1

Compound in the next test: CS(=O)(=O)c1ccc(C(=O)Nc2ccc(Cl)c(-c3ccccn3)c2)c(Cl)c1 [Vismodegib]
Conditions: top dose 10 µM; top dose inferred. The protocol:
as §1

Compound in a further test: Cc1cnc(Nc2ccc(F)cc2Cl)nc1-c1c[nH]c(C(=O)N[C@H](CO)c2cccc(Cl)c2)c1 [VX-11e]
As to conditions: top dose 5.12 µM; top dose inferred. How it is done: as §1

786-0 (kidney, adherent): the AUC with 17-AAG was 0.617; with CCT018159, 0.766; in the test with BIX02189 it was 0.896; with Dimethyloxalylglycine, 0.902; with OSI-027 it was 0.271; with TG101348 it was 0.675. Besides, the AUC with UNC1215 stood at 0.986. Moreover, the IC50 in the test with 17-AAG is 0.127 µM; with CCT018159 it was 3.41 µM; with BIX02189, above 20 µM; with Dimethyloxalylglycine, above 4000 µM; with OSI-027 it was 0.297 µM; with TG101348 it was 1.89 µM. Also, the IC50 in the test with UNC1215 is above 1 µM.
Turning to MM1S (myeloma, suspension), the AUC with 17-AAG stood at 0.973; with CCT018159 it was 0.957; with Vismodegib it was 0.986. In addition, the figures for the half-maximal inhibitory concentration (IC50) with 17-AAG, with CCT018159 and with Vismodegib were above 1 µM, above 10 µM and above 10 µM, respectively.
As to COLO-205 (large intestine, suspension), the AUC came out at 0.425 in the test with 17-AAG; 0.985 in the test with CCT018159; 0.95 in the test with BIX02189; 0.878 with Dimethyloxalylglycine; 0.663 in the test with OSI-027; 0.675 with VX-11e. Besides, the AUC in the test with TG101348 was 0.829; with UNC1215, 0.98. The IC50 with 17-AAG is 0.039 µM; with CCT018159, above 10 µM; with BIX02189, above 20 µM; in the test with Dimethyloxalylglycine, 3980 µM; with OSI-027 it was 3.53 µM; with VX-11e it was 0.977 µM. Further, the IC50 is 6.27 µM with TG101348 and above 1 µM with UNC1215.
For the cell line RERF-GC-1B (stomach, adherent), the AUC in the test with 17-AAG is 0.98; in the test with CCT018159 it was 0.978; in the test with BIX02189, 0.886; with Dimethyloxalylglycine, 0.567; in the test with OSI-027 it was 0.729; with VX-11e, 0.853. Besides, the AUC came to 0.575 with TG101348 and 0.983 with UNC1215. Besides, the IC50 with 17-AAG is above 1 µM; with CCT018159 it was above 10 µM; with BIX02189, above 20 µM; with Dimethyloxalylglycine it was 389 µM; with OSI-027 it was 6.11 µM; in the test with VX-11e it was 4.73 µM. Besides, the IC50 with TG101348 was 1.05 µM; with UNC1215, above 1 µM.
Take “NCI-H522 (lung adenocarcinoma, adherent)”: the AUC was found to be 0.797 in the test with 17-AAG; 0.926 in the test with CCT018159; 0.968 in the test with BIX02189; 0.474 with Dimethyloxalylglycine; 0.954 with OSI-027; 0.977 with VX-11e. Moreover, the AUC with TG101348 amounted to 0.943; with UNC1215, 0.982. Also, the IC50 was 0.575 µM in the test with 17-AAG; above 10 µM with CCT018159; above 20 µM with BIX02189; 209 µM with Dimethyloxalylglycine; above 20 µM with OSI-027; above 5.12 µM with VX-11e. Further, the 50% inhibitory concentration (IC50) in the test with TG101348 is above 10.2 µM; with UNC1215 it was above 1 µM.
Consider VMRC-RCW (kidney, adherent), for which the AUC was found to be 0.977 with BIX02189; 0.399 with Dimethyloxalylglycine; 0.752 with OSI-027; 0.98 with Vismodegib; 0.966 in the test with VX-11e; 0.904 in the test with TG101348. Moreover, the IC50 in the test with BIX02189 is above 20 µM; with Dimethyloxalylglycine, 135 µM; with OSI-027, 6.21 µM; in the test with Vismodegib, above 10 µM; with VX-11e, above 5.12 µM; with TG101348 it was above 10.2 µM.
MKN45 (stomach, adherent): the AUC stood at 0.917 with CCT018159; 0.982 in the test with BIX02189; 0.851 with Dimethyloxalylglycine; 0.697 in the test with OSI-027; 0.972 with Vismodegib; 0.866 with VX-11e. Also, the AUC in the test with TG101348 was determined as 0.951; with UNC1215, 0.963. The IC50 with CCT018159 is above 10 µM; with BIX02189 it was above 20 µM; with Dimethyloxalylglycine it was above 4000 µM; in the test with OSI-027, 5.24 µM; in the test with Vismodegib, above 10 µM; with VX-11e it was above 5.12 µM. Moreover, the half-maximal inhibitory concentration (IC50) with TG101348 was above 10.2 µM; with UNC1215 it was above 1 µM.
MCF7 (breast, adherent): the AUC is 0.855 with CCT018159; 0.986 with BIX02189; 0.837 with Dimethyloxalylglycine; 0.985 in the test with OSI-027; 0.986 with Vismodegib; 0.986 in the test with VX-11e. Besides, in the test with UNC1215, the AUC is 0.984. Moreover, the IC50 with CCT018159 is 8.41 µM; with BIX02189 it was above 20 µM; with Dimethyloxalylglycine, 2810 µM; with OSI-027, above 20 µM; with Vismodegib it was above 10 µM; in the test with VX-11e, above 5.12 µM. Also, the IC50 with UNC1215 was above 1 µM.
For “HOP-92 (large cell lung carcinoma, adherent)”, the AUC with CCT018159 was found to be 0.945; with BIX02189 it was 0.98; in the test with Dimethyloxalylglycine it was 0.696; in the test with OSI-027, 0.981; with Vismodegib, 0.983; with VX-11e, 0.979. Besides, the figures for the AUC in the test with TG101348 and in the test with UNC1215 were 0.985 and 0.964, respectively. The IC50 with CCT018159 is above 10 µM; with BIX02189, above 20 µM; with Dimethyloxalylglycine, 981 µM; in the test with OSI-027, above 20 µM; with Vismodegib it was above 10 µM; in the test with VX-11e, above 5.12 µM. The concentration for half-maximal inhibition (IC50) is above 10.2 µM in the test with TG101348 and above 1 µM with UNC1215.

The term IC50 denotes the concentration that gives 50% inhibition.
